# In PMC9911399, “Two distinct binding modes provide the RNA-binding protein RbFox with extraordinary sequence specificity”:
# Changes are numbered by the printed parent chain; changes in the protein carry UniProt numbers. The list shows a part of the results.
# T1: RBFOX1 RRM (Homo sapiens, UniProt Q9NWB1 109-208)
# T1 sequence: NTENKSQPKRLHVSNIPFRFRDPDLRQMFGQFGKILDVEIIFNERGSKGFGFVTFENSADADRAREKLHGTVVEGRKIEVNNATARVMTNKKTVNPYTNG
# B1: GUCACCA (DNA:RNA)
# RNA: GGGAGACCGGAAUUCAGAUUGUCCGUCACCAUUAAAUCCCGUCGUAGCCACCA
# DNA 1: CAATCTGAATTCCGGTCTCCC
# DNA 2: TGGTGGCTACGACGGGATT
# B2: GGAAUAC (DNA:RNA)
# RNA: B1 RNA with U26G, C27A, C29U, C30A, A31C
# DNA 1: CAATCTGAATTCCGGTCTCCC
# DNA 2: TGGTGGCTACGACGGGATT
# B3: UCUUAAC (DNA:RNA)
# RNA: GGGAGACCGGAAUUCAGAUUGUCCUCUUAACUUAAAUCCCGUCGUAGCCACCA
# DNA 1: CAATCTGAATTCCGGTCTCCC
# DNA 2: TGGTGGCTACGACGGGATT
# B4: UCGCGUC (DNA:RNA)
# RNA: B3 RNA with U27G, U28C, A29G, A30U
# DNA 1: CAATCTGAATTCCGGTCTCCC
# DNA 2: TGGTGGCTACGACGGGATT
# B5: CCGCUAG (DNA:RNA)
# RNA: B3 RNA with U25C, U27G, U28C, A29U, C31G
# DNA 1: CAATCTGAATTCCGGTCTCCC
# DNA 2: TGGTGGCTACGACGGGATT
# B6: UACUGUC (DNA:RNA)
# RNA: B3 RNA with C26A, U27C, A29G, A30U
# DNA 1: CAATCTGAATTCCGGTCTCCC
# DNA 2: TGGTGGCTACGACGGGATT
# B7: GGAAUAU (DNA:RNA)
# RNA: B1 RNA with U26G, C27A, C29U, C30A, A31U
# DNA 1: CAATCTGAATTCCGGTCTCCC
# DNA 2: TGGTGGCTACGACGGGATT
# B8: GAAACGC (DNA:RNA)
# RNA: B1 RNA with U26A, C27A, C30G, A31C
# DNA 1: CAATCTGAATTCCGGTCTCCC
# DNA 2: TGGTGGCTACGACGGGATT
# B9: AUGGACC (DNA:RNA)
# RNA: B1 RNA with G25A, C27G, A28G, C29A, A31C
# DNA 1: CAATCTGAATTCCGGTCTCCC
# DNA 2: TGGTGGCTACGACGGGATT
# Molecular target: T1, RBFOX1 RRM
# Experiment: EMSA; HiTS-Eq, 1 nM pool, 10 min; buffer printed only for the single-RNA assays: 10 mM Tris pH 7.5, 150 mM NaCl, 3.4 mM EDTA, 0.001% NP-40, 30 C
# Settings: tags: His6 N-terminal (pET28a); label: 5' 32P
# Outline: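 These values rest on relative association constants, computed from read-count changes of each RNA species versus the control reaction and normalised to the cognate motif. Reads came from free RNA recovered by 8% native PAGE after purified RbFox RRM (wild type or mutant) at increasing concentrations was equilibrated for 10 min in 50 µL with 1 nM of a 5′-radiolabelled pool with 7 randomized nucleotides and DNA-annealed flanks.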
row,Binder,binding signal
1,B1,0.00474 KA relative to UGCAUGU
2,B2,0.00878 KA relative to UGCAUGU
3,B3,0.00519 KA relative to UGCAUGU
4,B4,0.0138 KA relative to UGCAUGU
5,B5,0.0146 KA relative to UGCAUGU
6,B6,0.0158 KA relative to UGCAUGU
7,B7,0.00795 KA relative to UGCAUGU
8,B8,0.00639 KA relative to UGCAUGU
9,B9,0.0115 KA relative to UGCAUGU
